Results taken from paper PMC9862037, “Interactions of Mycotoxin Alternariol with Cytochrome P450 Enzymes and OATP Transporters” (Metabolites, 2022).

Biological target: OATP1B1 (Homo sapiens, UniProt Q9Y6L6)
Type: cell-based
Parameters: expressed in transfected cells
Settings: Ace 5 µM preloading, E1S 50 μM, PFA 0.5%; for fluorescence signal in the CCF: AOH from two-fold of its IC50; for effect on efflux of the probe: buffer pH 5.5 without probe
Procedure: The assays were performed as described recently. Cells were seeded on 96-well plates one day prior to the measurement. After washing three times with PBS at room temperature, cells were incubated for 15 min with 8-acetoxy-1,3,6-trisulfopyrene (Ace, 5 µM). After this “preloading” stage, the supernatant was removed, and the cells were incubated with the same amount of the probe (Counterflow assay) or without the probe in buffer pH 5.5 (Efflux assay) in the absence and the presence of AOH for further 20 min. Fixed concentrations of AOH were selected based on the IC50 values determined in the transport inhibition assay. […]. Cells were washed three times with ice-cold PBS, then NaOH solution (0.1 N, 200 µL/well) was added. After 20 min, fluorescence was measured with an Enspire plate reader in Ex/Em wavelengths 460/510 nm. Bottom reading was applied with two horizontal (X) and two vertical (Y) points, measurement height was 3 mm with 200 flashes. Fluorescence was compared to the preloaded control incubated with Ace alone, considered as 100%.

UniProt Q9Y6L6, sequence (Q9Y6L6 whole entry): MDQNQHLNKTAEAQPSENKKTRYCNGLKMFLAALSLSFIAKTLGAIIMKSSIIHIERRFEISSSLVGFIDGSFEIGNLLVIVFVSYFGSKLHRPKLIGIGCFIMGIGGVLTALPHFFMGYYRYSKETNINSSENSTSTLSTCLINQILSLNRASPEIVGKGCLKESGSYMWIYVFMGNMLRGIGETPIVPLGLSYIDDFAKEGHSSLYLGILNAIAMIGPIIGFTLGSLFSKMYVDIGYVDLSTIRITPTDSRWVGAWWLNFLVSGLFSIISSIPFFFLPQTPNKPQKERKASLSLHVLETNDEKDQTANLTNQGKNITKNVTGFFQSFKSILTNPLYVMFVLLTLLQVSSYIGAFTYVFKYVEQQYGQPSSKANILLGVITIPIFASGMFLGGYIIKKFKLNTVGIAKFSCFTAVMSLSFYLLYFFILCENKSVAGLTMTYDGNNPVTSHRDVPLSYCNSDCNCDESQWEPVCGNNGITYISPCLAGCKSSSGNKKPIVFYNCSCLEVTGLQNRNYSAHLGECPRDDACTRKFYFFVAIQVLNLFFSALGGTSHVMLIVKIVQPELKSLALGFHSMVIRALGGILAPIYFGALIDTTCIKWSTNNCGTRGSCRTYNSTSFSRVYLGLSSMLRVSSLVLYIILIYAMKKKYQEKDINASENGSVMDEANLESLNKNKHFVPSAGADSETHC

Structure (SMILES)	fluorescence signal in the CCF	effect on efflux of the probe
Cc1cc(O)cc2oc(=O)c3c(O)cc(O)cc3c12 [AOH, Alternariol]	decrease in the fluorescence signal	not inhibiting efflux
C[C@]12CC[C@@H]3c4ccc(OS(=O)(=O)O)cc4CC[C@H]3[C@@H]1CCC2=O [E1S, Estrone-3-sulfate]	decrease in the fluorescence signal	not inhibiting efflux
